Measurements from the supplement of paper PMC11417369.
The other results are listed elsewhere or left out.

test system: PfAP2-HC AP2 domain (GST-tagged); assay: gcPBM binding intensity (ln(normalized median fluorescence intensity)); higher = stronger DNA binding
Method in brief: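 Probes on an Agilent 4 × 180k array were primer-extended, double-stranded and 36 bp long, taken from intergenic genomic regions, with negative controls added. GST-tagged P. falciparum DNA-binding domains from E. coli, about 25 μg on average, were applied to the array for 1 h in 1× PBS containing 1% milk, 0.2 mg/ml BSA, 0.5% salmon testes DNA and 0.03% Triton X-100. Binding intensity, obtained after Alexa488 anti-GST antibody detection and a 488 nm scan, is the highest Masliner-normalised natural-log median intensity across replicate spots of either probe orientation.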

Sequence | gcPBM binding intensity (ln)
TACGTAAATTCTAATACACACTATAGGATATTCTGC [CACACA_site7248] | 9.65
AAAAATAATCATAGTAGTACAAAAAAAAAAAAAAAA [XGTACX_site3736] | 9.27
ATGTACTATGATAATGCATGCAATAATACATTTTTA [TGCATGCA_site318] | 9.6
TTATTATGTATATATGCACACAATACCCAAAACAAC [CACACA_site80] | 10
TAATATATATATAATACACACTATTTTAATCACATA [CACACA_site4849] | 9.63
TTTTTCAATTGTAGTGGTACAGATATAATTATCTCT [XGTACX_site5500] | 9.57
TTTTTATGAAAATAAACACACGATTTATTATATATA [CACACA_site1311] | 9.42
TTCTATATATTATATGCATGTAAAACATATTAAAAT [TGCATGCA_site662] | 9.52
TGCATGTAATTTTTGTGTCCACATAAAATATTTAAT [XGTACX_site5652] | 9.57
AGAACGACTAAGCAGTGTACATTTTGTATATACAAT [XGTACX_site2831] | 9.72
TTACATACATACAAGTGTACGCATATATTAATATTA [XGTACX_site4006] | 9.64
ATATGTACAAGTTATACACACATGTACAGTTATATA [CACACA_site6706] | 9.83
TTTAACATTTCAGATGTGCACATTTTCCGAACCAGT | 9.76
ATAATGAAGACTTTTTTACACACTTCATATATTATA [CACACA_site8630] | 9.8
TGATATTTTTCCATAGTGCAAAATATAGTAATGTAT | 9.63
AAAGAACTTAATGCTGCACACAAAAAAAAGGAAAAA [CACACA_site8375] | 10.1
AAATTGTTAAAAAGAAGTACATTCTTTTATTTCTTA [XGTACX_site540] | 9.36
TAAATGTGTATATATTGTACAAATATTAATACATAC [XGTACX_site8102] | 9.74
AGAAAAAAACGGTACAGTACACATAAACTAATTATT [XGTACX_site8617] | 9.84
TATTATATATGGAAGTAATAATATATATATATATAT [GTGCAC_negctrl_site63] | 9.53
ACAAACTAAAAAAGAAGTACAAATCGTATTAATAAT [XGTACX_site8684] | 9.76
TTTTTTGAAAATAAAAGTACAAATTTTATATTTAAA [XGTACX_site2758] | 9.18
CCAACATAGAGGGGCACACACATATATACATAAAAA [CACACA_site1847] | 10

Sequence | gcPBM binding intensity (ln)
AGTATACATATATATACACACACATATATATATATA [CACACA_site7883] | 9.87
CTTATATGAAGCCTCTTTATTCATAAATAAGAATAA [TGCATGCA_negctrl_site120] | 9.23
AAACAACATGGACACGCACACACAAAAAAAGCATGC [CACACA_site73] | 10.7
TTAACAAAATTTCCGTGTACGTAAATAAGAACATAG [XGTACX_site7200] | 9.63
GATTAAATTTGACACTGTACAAAAAATAAAATGAGG [XGTACX_site504] | 9.75
GTTAATTCATTAAGGACACACAAAAAAAAAAAAAAA [CACACA_site998] | 9.61
ATGAATATAAAATATACACACTTATATATTGAATGA [CACACA_site4274] | 9.74
AAAAAATTCAAAATCACACATAAAAAAGGACACATA [CACACA_site5972] | 9.86
TCATATTATAAAAAATGTACAAGGAAAAAATATATA [XGTACX_site337] | 9.74
TAATTTTGTAAAAATTGTACATATTTATCTTTTTAT [XGTACX_site4305] | 9.65
ACATTATATAAAATATGTACACATAAATAAATAAAT [XGTACX_site5031] | 9.92
AAAAAAAAAAAAAACACACACATATAATATATTTAA [CACACA_site1337] | 10.3
CCTACAATTCGTAATACACACACATATATATATATA [CACACA_site9251] | 9.94
TTTTTTTTTTACTTCACACATATACATTTATATTTA [CACACA_site4385] | 9.76
TAAACATACAGATACACACACACACCCACAGAGACA [CACACA_site4429] | 10.6
AGAATCACCAAATATGTACACACCTTAACATGTTTA [CACACA_site2068] | 9.95
ATATAACATAATGGATGTACATGTATAAATATAAAA [XGTACX_site8228] | 10
ATATATATGGTCATTTGTACATATCGTGAGAGCTGC [XGTACX_site4117] | 9.6
TATATTATAAATTAATGTACGTAATTTTTTTTTTTT [XGTACX_site2500] | 9.5
ATAATAATATTATTTTGTACATATGTGCTTATTTAT [XGTACX_site5540] | 9.85
TTTTGTCAACATTTTTATATTAGGTCTTGAACGATT [GTGCAC_negctrl_site72] | 9.38
GTATAATTTAAAAAGTGTACATAAAGTTTTTATTAA [XGTACX_site1090] | 9.44
AGTAATAAGTAATTTACACACATATTATAGCATCAC [CACACA_site6971] | 10.3

Sequence | gcPBM binding intensity (ln)
TTATTACCATATTTTGTACACACATCTTTATCTCAA [CACACA_site9054] | 10
CTTGGGCGTCATAATGAACACACAATTATATTATGA [CACACA_site9297] | 9.51
AAAATAATAAATAACGCATGCGTGTGCATTTTATTC [TGCATGCA_site898] | 10.2
ATATATACAAATCCTTTTTTCCAAGATGGAAAAAGA [CACACA_negctrl_site382] | 9.42
ATTATATAATCTATATGTACATATATATATATATAT [XGTACX_site4970] | 9.97
TATATATAAGCGCATGCACACGCAAAGGTATATAAA [CACACA_site8107] | 10.1
CAAAAGAAGGTAAACACACACACACGCATACAAAAA [CACACA_site7724] | 10.4
CAAAACCTTATATGTACACACATATACATCACCCTT [CACACA_site3170] | 10.3
ATAGAATAAAACTATACACACCTATATTTAAACATA [CACACA_site5106] | 9.91
ATTTCTCTATCGTAATGTACATAAAAAATGAAAAAA [XGTACX_site1201] | 9.44
TGTTTATTTTTAAAAAGTACATATTTAAAAAACTTC [XGTACX_site271] | 9.24
TTTTCTAAATAAATAGTGCATTTATTATATATACAT [GTGCAC_site9766] | 9.7
TATTGTTACTTTATATGTACTAATTAAACATATACA [XGTACX_site6363] | 9.74
AAAAATACCTTATATATACACACTATGTTTTTCTTT [CACACA_site1192] | 10.1
AAATATTAGTAACACAGACACACAAAAAAAAAAAAA [CACACA_site2175] | 9.84
AAAAAAAAAAAAAAAAGTACACAAATTTTAAAAATT [XGTACX_site3006] | 9.51
TATCTCTTCATATTGTGTACATATTTTTATTTATTG [XGTACX_site4038] | 9.89
AATTACTACATAAATACATGCATAATTATATATATA [TGCATGCA_site783] | 9.59
AACACTTCTTATTTATGTACTTAATTCCCAACGGAA [XGTACX_site4818] | 9.48
ATAAAATATAAAAATTGTACGATAATAATAGTAGGA [XGTACX_site8951] | 9.88
AAATGAATAAATAAGACACACACGAAAATAAGTAAA [CACACA_site71] | 10.4
TGATCAGATAGACACACACACAAAAAAAAAAAAAAA [CACACA_site7805] | 10.1
TTATAAAATTACTTGGTGCATTAGAATATTTCAATA | 9.35

Sequence | gcPBM binding intensity (ln)
AAATATATATATATATATATATATATATATATATAT [CACACA_negctrl_site677] | 9.47
TTTTCATTCAATTATATTTATATATATATATATATA [GTGCAC_negctrl_site538] | 9.6
TACATGTATAAATAAGCACACATGTGGATATGTACA [CACACA_site93] | 10
CAAAATATTTTTATAACACACATATATATAATGTGC [CACACA_site4767] | 9.7
ACTTATATATTATGTTGTCCGTCCATTCTCTTTATC [XGTACX_site3769] | 9.95
AAAATTTAAAGCATGACACACAATTATATTATGTGC [CACACA_site3435] | 9.76
TTGTGAAATAAAATTTGTACACACATATATATATAT [XGTACX_site1078] | 9.96
TTTTTTTTGGAATTCACACAAATATAACATGGGTAT [CACACA_site5185] | 9.56
TTCTTTTCTTTAGTAGAATGTAAAAAATATAATCTT [XGTACX_negctrl_site290] | 9.41
TACACAAGGGGAAAAATATATATATATATATATATA [TGCATGCA_negctrl_site217] | 9.47
TAAAAAATTTTATATTCACACACATATATATATATA [CACACA_site8109] | 9.89
TAAAAGTATATATATACACACATAAATATATATGTA [CACACA_site663] | 9.84
TTTTATAAGGTGAAAAGTACATATAACTTATTTTAC [XGTACX_site5572] | 9.54
TTAAATGATGTAAACACACACATATACATTATTATA [CACACA_site3162] | 10
TATTGTCTATAATAAACACACAATATTAAAAATATA [CACACA_site6624] | 9.57
ATCTTTCCTATTTGTAGTACAAAAAAAAAAAAAAAA [XGTACX_site5485] | 9.15
AAAAAAAAAAAAAAAACACACATACATACATACATA [CACACA_site6125] | 10.3
TTTTTTTTTTTTTTTGCACACACCATATTTATAGAA [CACACA_site3310] | 10.2
AGAAAAGTGATATATACACACTTATATTTATTTATA [CACACA_site7350] | 9.66
TTATTTTATTTTTTTGTGCACATATATATTTATAAA [GTGCAC_site9615] | 9.72
